Assay results: PubChem BioAssay AID1476 (National Center for Advancing Translational Sciences (NCATS), 2009)
About 4,500 (2.2%) of roughly 200,000 compounds were called active. Inconclusive results, whose numbers are uncertain, are shown with a selection of clear calls. The call rests on the fitted dose curve; in most records, active means well fitted inhibition curve with a large enough effect; inconclusive means small, poorly fitted or top-dose-only effect, or effect the other way; inactive means flat fitted curve, though single readings scatter. Potencies beside an inconclusive call are fits to weak or partial responses and may not hold up.

biological target: Cruzipain (Trypanosoma cruzi) (UniProt P25779); test: qHTS Assay for Promiscuous and Specific Inhibitors of Cruzain (without detergent); conditions: purified cruzain, Z-FR-AMC fluorescence, no detergent; further: nearly all actives have a fitted effect of over 40% in size;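 on max response, negative = inhibition: plate controls were enzyme without inhibitor for no effect and buffer without enzyme for full effect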
Sequence of UniProt P25779 (P25779 whole entry, looked up): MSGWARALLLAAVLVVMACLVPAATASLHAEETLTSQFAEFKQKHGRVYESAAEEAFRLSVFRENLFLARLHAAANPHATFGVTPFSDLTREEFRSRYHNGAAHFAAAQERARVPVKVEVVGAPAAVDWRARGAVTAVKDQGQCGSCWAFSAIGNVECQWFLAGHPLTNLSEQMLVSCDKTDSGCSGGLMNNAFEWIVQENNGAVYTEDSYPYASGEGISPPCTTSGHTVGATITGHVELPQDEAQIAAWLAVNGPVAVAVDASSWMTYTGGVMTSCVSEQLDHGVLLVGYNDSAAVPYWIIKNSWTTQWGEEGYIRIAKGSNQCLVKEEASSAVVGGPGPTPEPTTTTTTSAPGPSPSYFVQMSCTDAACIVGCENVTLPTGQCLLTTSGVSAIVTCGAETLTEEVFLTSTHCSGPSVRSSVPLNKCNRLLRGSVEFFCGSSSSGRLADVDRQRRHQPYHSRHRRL
Summary of the method: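 Detergent-free condition (0.00005% Triton X-100) in acetate buffer pH 5.5 with DTT. 1.5 nM enzyme and compound were pre-mixed 15 min, then 2 uM Z-FR-AMC substrate added; reaction progress from fluorescence change between first and third reads (60 s).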
Potency means the concentration at half of the fitted maximal effect; tags describe the fitted curve by direction and shape.

| SMILES | Potency | max response, negative = inhibition |
| --- | --- | --- |
| O=C(c1ccc2c(c1)N(Cc1ccc(Cl)cc1)C(=O)c1ccccc1S2(=O)=O)N1CCCC1 | inconclusive: 39.8 µM [activator, single point] |  |
| Cc1cccn2c(=O)c3cc(C(=O)NCCN4CCOCC4)c(=N)n(CCc4ccccc4)c3nc12 | inconclusive: 39.8 µM [inhibitor, single point] |  |
| NC(=O)c1c(N)sc2c1CCCC2 | active: 20 µM |  |
| Nc1c(C(=O)NCc2ccccc2)c2nc3ccccc3nc2n1CCCN1CCOCC1 | inconclusive: 31.6 µM [activator, single point] |  |
| CC(=O)Nc1ccc(NC(=O)CN(c2ccc(C34CC5CC(CC(C5)C3)C4)cc2)S(C)(=O)=O)cc1 | inconclusive: 5.01 µM [activator, single point] |  |
| Clc1ccc2nc(CN3CCCc4ccccc43)cn2c1 | inconclusive: 39.8 µM [inhibitor, single point] |  |
| Cc1ccc(NC(=O)CN2C(=O)COc3ccc(S(=O)(=O)N4CCCCCC4)cc32)c(C)c1 |  | inactive: 0.109% |
| Cc1ccc(CNC(=O)C(=O)Nc2c3c(nn2-c2ccc(F)cc2)CSC3)cc1 | active: 12.6 µM |  |
| Cc1cccc2c1-c1sc(C(=O)Nc3ccc(F)cc3F)cc1CO2 |  | inactive: -26.4% |
| COC(=O)C1(C(=O)OC)CC2=CCC3C(=O)N(c4ccccc4)C(=O)C3C2Cc2ccccc2[C@@H]1C[N+](=O)[O-] (some centres not stated) |  | inactive: 13.4% |
| CCCCC1CCC(C(=O)N2CC(=O)Nc3ccc(Br)cc3C2c2ccc(F)cc2)CC1 (configuration not stated) | inconclusive: 31.6 µM [inhibitor, single point] |  |
| COc1ccc(CCNC(=O)COc2ccc(S(=O)(=O)N3CCOCC3)cc2)cc1 | inconclusive: 39.8 µM [activator, single point] |  |
| CN(C)c1ccc(-c2nnn(CC(=O)Nc3ccccc3N3CCOCC3)n2)cc1 |  | inactive: -11.6% |
| O=C(COc1ccc2ccccc2c1)Nc1nc2ccccc2[nH]1 | active: 25.1 µM |  |
| O=c1cc(CSc2nnc(-c3cccs3)n2Cc2ccccc2)nc2sc3ccccc3n12 | inconclusive: 31.6 µM [inhibitor, single point] |  |
| Cc1ccc(N(CC(=O)N2CCN(c3cc(C)ccc3C)CC2)S(=O)(=O)c2c(C)nn(C)c2C)cc1 | inconclusive: 6.31 µM [activator, single point] |  |
| Cc1cc(C)c2nc(SCC(=O)N3CC(=O)Nc4ccccc43)c(C#N)cc2c1 | inconclusive: 12.6 µM [inhibitor, partial curve, poor fit] |  |
| O=C(N/N=C/c1ccc(Cl)cc1Cl)Nc1ccccc1 | inconclusive: 39.8 µM [inhibitor, single point] |  |
| O=C(O)[C@H](CCc1ccccc1)N1C(=O)c2ccccc2C1=O |  | inactive: 3.27% |
| Cc1ccc(-c2nnc(N3CCOCC3)c3ccccc23)cc1S(=O)(=O)NCC1CCCO1 (configuration not stated) | inconclusive: 39.8 µM [activator, single point] |  |
| O=S(=O)(Nc1cc(Cl)ccn1)c1ccc(Cl)cc1 | inconclusive: 39.8 µM [inhibitor, single point] |  |
| CC(C)N1CC=C2C(C#N)=C(N)C(C#N)(C#N)[C@H](c3ccoc3)[C@H]2C1 | inconclusive: 20 µM [inhibitor, single point] |  |
| CCOc1ccc(N(C)C(=O)c2oc(=O)c3ccccc3c2-c2ccccc2)cc1 |  | inactive: 7.13% |

| SMILES | Potency | max response, negative = inhibition |
| --- | --- | --- |
| COc1ccc(N2CCN(C(=O)CCCOc3cc(=O)n(C)c4ccccc34)CC2)cc1 | inconclusive: 31.6 µM [activator, single point] |  |
| COc1cc(Cl)c(C)cc1NC(=O)CSc1ccc(NC(C)=O)cc1 | inconclusive: 39.8 µM [activator, single point] |  |
| CC(C)CNc1nc2ncnc(N)c2[nH]1 |  | inactive: 1.69% |
| Cc1cc2oc(=O)cc(CSc3nnc(-c4cccs4)o3)c2cc1C(C)C | active: 12.6 µM |  |
| COc1ccc(N=C2SC(CC(=O)Nc3ccccc3OC)C(=O)N2Cc2ccco2)cc1 (configuration not stated) |  | inactive: -29% |
| COc1ccc(-c2nc(-c3ccccc3)oc2Nc2c(C)cccc2C)cc1 |  | inactive: -4.39% |
| Fc1cccc2sc(Nc3nc4cc5c(cc4s3)OCCO5)nc12 | inconclusive: 31.6 µM [inhibitor, single point] |  |
| COCC(C)n1c(C)cc(C(=O)COC(=O)c2c(NC(C)=O)sc(C)c2C)c1C (configuration not stated) | inconclusive: 25.1 µM [activator, partial curve] |  |
| O=C(COc1ccc(Cl)cc1)Nc1ccc2nc(SCC(=O)N3CCCC3)sc2c1 |  | inactive: 7.46% |
| Cc1ccccc1Nc1nnc(SCC(=O)c2cc3ccccc3o2)s1 | inconclusive: 31.6 µM [inhibitor, single point] |  |
| Cc1ccc2[nH]c(=O)c(C(c3nnnn3CC3CCCO3)N3CCCc4ccccc43)cc2c1 (configuration not stated) | inconclusive: 39.8 µM [activator, single point] |  |
| Fc1ccc2nc(Nc3nc4cc5c(cc4s3)OCO5)sc2c1 | inconclusive: 31.6 µM [inhibitor, single point] |  |
| CN(C)c1ccc(/C=N/NC(=O)C(=O)/C=C2\NC3(CCCC3)Cc3ccccc32)cc1 | inconclusive: 39.8 µM [inhibitor, single point] |  |
| Cc1ccc2nc(NC(=O)c3ccc(Cl)s3)sc2c1 | active: 12.6 µM |  |
| COc1ccc(CN[C@H](C)C(=O)O)cc1 |  | inactive: -1.75% |
| O=C(CSc1nnc2ccc3ccccc3n12)Nc1ccccc1Cl |  | inactive: -3.42% |
| O=C(Cc1ccc(F)cc1)NCc1ccc2c(c1)CCN2C(=O)c1ccc(F)cc1 |  | inactive: -2.85% |
| Cc1cccc(NC(=O)Nc2nnc(N3CCCCC3C)s2)c1C (configuration not stated) | inconclusive: 6.31 µM [inhibitor, single point] |  |
| CCN(CC)CCOC(=O)c1ccc(NC(=O)Cn2ncc3c2-c2cc(C)ccc2OC3)cc1 |  | inactive: 1.37% |
| COc1ccc(NC(=O)CSc2nc3nc(C)c(Cc4ccccc4)c(C)n3n2)cc1OC | inconclusive: 39.8 µM [activator, single point] |  |
| O=C(Cn1c(C(F)(F)F)nc2ccccc21)OCC(=O)c1c[nH]c2ccccc12 | inconclusive: 31.6 µM [inhibitor, single point] |  |
| Cc1nn(-c2ccc(F)cc2)c(-n2cccc2)c1C(=O)NCCc1ccc(Cl)cc1 |  | inactive: 18.4% |
| COc1ccc2sc(N(Cc3cccnc3)C(=O)C3CCCCC3)nc2c1 |  | inactive: 26.6% |

| SMILES | Potency | max response, negative = inhibition |
| --- | --- | --- |
| Cc1ccc(C(=O)NC(=S)Nc2ccc3[nH]c(=O)[nH]c3c2)cc1C | inconclusive: 39.8 µM [inhibitor, single point] |  |
| CCCCOc1ccc(C2=NC(c3ccncc3)=Nc3ccc(OCC)cc3N2)cc1 |  | inactive: 0.298% |
| CCOc1ccccc1CNC(=O)C1CCN(c2nnc(-n3c(C)ccc3C)s2)CC1 |  | inactive: -14.5% |
| COc1ccc2[nH]cc(CCNc3nc(-c4ccc(N(C)C)cc4)nc4ccccc34)c2c1 | active: 25.1 µM |  |
| COc1ccc(NC(=O)C(Cc2ccccc2)NS(=O)(=O)c2ccc3c(c2)CCC(=O)N3)c(OC)c1 (configuration not stated) |  | inactive: -6.43% |
| CCOc1cccc2c1N[C@@H](c1ccc(C(=O)O)cc1)[C@H]1CC=C[C@@H]21 | inconclusive: 10 µM [activator, partial curve] |  |
| C=C1CCC(OC(C)=O)/C(C)=C/CC2[C@H]1CC2(C)C (some centres not stated) | inconclusive: 39.8 µM [activator, single point] |  |
| Cc1sc2ncnc(Nc3ccc(N4CCOCC4)cc3)c2c1-c1ccccc1 | inconclusive: 39.8 µM [activator, single point] |  |
| Cc1ccc2c(c1)N(C(=O)N1CCC(C(=O)NCCc3ccc(Cl)cc3)CC1)CC(C)O2 (configuration not stated) |  | inactive: 1.6% |
| COc1ccc(C(=O)C(OC(=O)c2ccc(C)c(NC(C)=O)c2)c2ccccc2)cc1 (configuration not stated) | inconclusive: 39.8 µM [activator, single point] |  |
| Cc1ccc(C)c(N2CCN(C(=O)c3cc4c(=O)n(Cc5ccccc5)ccc4nc3C)CC2)c1 | inconclusive: 39.8 µM [activator, single point] |  |
| Cc1ccc(CN(Cc2ccco2)C(=O)c2ccc(OCC(C)C)cc2)cc1 | inconclusive: 39.8 µM [inhibitor, single point] |  |
| CC1Cc2ccccc2N1c1ncnc2c1nnn2Cc1ccccc1Cl (configuration not stated) | active: 25.1 µM |  |
| COC(=O)C1CN(C#N)N(c2ccc(Cl)cc2)C12c1ccccc1-c1ccccc12 (configuration not stated) | active: 25.1 µM |  |
| CCOC(=O)c1sc(C)c2c1NC(c1ccc(Cl)cc1)NC2=O (configuration not stated) | inconclusive: 31.6 µM [inhibitor, single point] |  |
| Cc1cc(C)c2[nH]c(=O)c(C(c3nnnn3C(C)(C)C)N(Cc3ccco3)CC3CCCO3)cc2c1 (configuration not stated) | inconclusive: 20 µM [activator, single point] |  |
| Cc1ccc(S(=O)(=O)N2CCCc3cc(NS(=O)(=O)c4cc(C)ccc4C)ccc32)cc1 | inconclusive: 39.8 µM [inhibitor, single point] |  |
| COc1ccc2[nH]c3c(c2c1)CCN(C(=O)c1cccc(Cl)c1)C3c1ccc(F)cc1 (configuration not stated) | inconclusive: 39.8 µM [inhibitor, single point] |  |
| FC(F)Oc1ccc(/C=N/NC(=S)Nc2cc(C(F)(F)F)ccc2Cl)cc1 | inconclusive: 31.6 µM [inhibitor, single point] |  |
| Cc1cccc(NC(=S)/N=C(\N)Nc2nc(C)c3ccccc3n2)c1 | inconclusive: 39.8 µM [inhibitor, single point] |  |
| Cc1ccc2[nH]c(=O)c(NC(N)=S)nc2c1 | active: 1.58 µM |  |
